Drawing on PMC10726135, this text covers binding signal (log2 normalized intensity) for 93 sequences.

This is one part of the list. At the low end of the ranking, values are background and their order means little. Measured with an extract: partners may take part in the binding.

For this assay, the target named is T1, HNF4alpha8 (COS-7 nuclear extract) (UniProt P41235-5).
T1 sequence: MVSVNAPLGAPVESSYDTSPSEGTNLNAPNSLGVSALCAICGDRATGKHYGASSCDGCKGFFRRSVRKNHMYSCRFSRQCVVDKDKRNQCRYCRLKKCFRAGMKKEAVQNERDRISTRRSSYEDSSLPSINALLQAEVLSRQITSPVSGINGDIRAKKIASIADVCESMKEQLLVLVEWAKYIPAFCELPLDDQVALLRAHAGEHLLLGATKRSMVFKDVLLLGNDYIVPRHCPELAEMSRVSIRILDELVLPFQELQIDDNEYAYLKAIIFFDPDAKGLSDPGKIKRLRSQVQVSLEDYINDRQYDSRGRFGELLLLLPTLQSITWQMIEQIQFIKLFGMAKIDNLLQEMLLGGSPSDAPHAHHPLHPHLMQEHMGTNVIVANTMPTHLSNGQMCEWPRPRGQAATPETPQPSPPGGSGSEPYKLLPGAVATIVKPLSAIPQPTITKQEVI
The experiment in a line: protein-binding microarray. To be noted: COS-7 nuclear extract on double-stranded Agilent 4x180k PBM; binding buffer, salt, pH and temperature not given; high values mean tight binding; double strand, one strand shown; sequences stand for … in …GCCTAGGGAGATTAGAGTATCGGTCGA
Turning to ATTCAACAGAGCTATTTTAGGGTAAAGATC, the binding signal (log2 normalized intensity) came to 0.885.
Consider CACCAGCTTCTTCTCTTTGACAAAAAATGA, for which the binding signal (log2 normalized intensity) was 0.27.
The value for AGATAAGGCTAGTAACACTCACATTCCACG was -1.27; that for ATTTATTACAGAGAGGGGGAGTGAAGGTTA was 1.17; that for TAGCCTATCAGAAGAATCTGTATCAGCCTG was -0.8.
The figure for CCAGCCTGTCGGAATTTGCCCTGTGGTCTA is 3.59; for CCTGGTAGTGCGACAAGAATGTGGTTCTTT it is 1.14.
The figure for ATATTAACCTTTGCCCCAGCTGTCACCCAG is 5.72; for GCTCTGTGCCTTGTATTTCAAAACTGATAA it is 0.224.
In the case of ATGCTGGGGACCTTTGGCCTTTACCTGTTA, the binding signal (log2 normalized intensity) is 5.47.
The value for GAACTTTTACCTAATGTTCACAATAAGAGG was 0.562.
The value for GAGTTGAGTTGGAGAAGAGCAAAGATCATC was 2.46; that for AGCATGCTTCCCAAATGGAGTGCCCTAGGA was 1.55.
The value for GCTCGGCTCGCTCTCCCTGCTGGCCTGGGA was -1.26; that for GCTTTAGATATCAGAAATGCATGAGTGACC was 2.64.
As for TAATTGAGTAACCAGCTGCCTCTTGTGTTC, the binding signal (log2 normalized intensity) was 1.16.
The value for TCGCGCCCCAACGGATACCTCTTTGAACTG was 1.45.
The figure for ACTGATTCTCCAGGAAGTTCAGGCCTCGGC is -1.28.
The figure for ACCAAATGGGAACATTCCTCAGGGAATTTC is -1.27; for CCTTATGACGGACAAAGGGCTCTCTCACCA it is -1.21; for GTCAGAGATTTCTTTACCATACCAGATGAA it is 0.211.
Consider TTATGTTGGCACTTCTCTCGGCCTTAAGAG, for which the binding signal (log2 normalized intensity) is -1.49.
The value for ATAGAGATTGCTTAATGCAAACTCCAGCAT was -1.35; that for AGTGGCTTCATTCCCGAGTGCCTTTAGAGG was 1.32; that for TCACCAATGGTAACTGAAAGTCATGCTGAA was -1.41.
On to ATGACAGTACCTCTCAAAAATCTCACTCAC, for which the binding signal (log2 normalized intensity) was -1.27.
The figure for CTGAGCTGGCAGGGAGGAGGGATCAAGCAG is -1.5.
The figure for GTTTAGGAGGAAATAGAGAGCAGACAGGGG is -1.36; for GGTGGACCAAAACACTTGTGTCAACCGTGT it is 0.396; for AAAGATAATATTTTTGACTTACCATTTGCT it is -1.34.
The figure for TACACAGAAGTTAATTTCAAAACAAATAAA is -1.28; for CCTCAATGCTATCTCCCAGTTCTTTTGACC it is 2.7; for GGGGGCGACCTGCTGGACGGGAGGAAAACT it is -1.36.
Consider TGCAACCAGTTGGTGGGTCAAGGTGCAAAG, for which the binding signal (log2 normalized intensity) amounted to 3.74.
The value for CTCCCCACAAATTCTGTACTTCAACCAGGT was 1.91; that for CACTGCTCACAGGTTGTACTATGACCCAAA was 6.03.
The value for TAATGAGGCCACTCCTGATAGCTAGAGAGT was -1.39; that for GCCTGCAAGTTCAAAAGGACTCCCAGAGCA was -1.27.
CTTTCCACTCCCATTACTTCTGTTTGCATT: the binding signal (log2 normalized intensity) stood at 0.958.
The value for AGAGTTAATAACAGACCATGCCATGCATTT was -1.33; that for GGCTAGAAAAGAAGGATAGAGAGTTGGGAG was -1.38.
The value for GTGTTCAGAGCTTGCTGCATTCCCCCACCT was 4.43; that for CCGTCCTGTCCTGGACTTTCCTTTGTTGGG was 2.84; that for CATGAGAGAAAAGAATAAAATTGTACTTCG was 1.63.
In the case of CCAGGGTGAGAGGGACCCTTCCTCGGTGGA, the binding signal (log2 normalized intensity) was -0.795.
The figure for CCCTTGGAATGTGACCTTAGACCCCTGAAT is 6.49; for GATGATCAAAGGTCAGTCTTAGGACCACAT it is 4.92.
Regarding ACCTCCCCTCTGACCAGAGACATTCCAACC, the binding signal (log2 normalized intensity) was determined as 2.18.
The value for CTAAGAGAAATCCACACAGCACTGACCTTT was 6.82.
The figure for CATGTAACCCCTTTTCAATTCCTTATCTCG is 1.36; for GAATCAAGGCAAGCCTTATCACTGTTTGGC it is -1.23.
As for GTTATCCCTAGGAAGGATAAGAGCAAGAAA, the binding signal (log2 normalized intensity) is -1.37.
The figure for CCAAAAACAAAACTGGTCATACAGCCTGAC is -1.24; for AAGGGAGCACAACCCGGGCGCACAAGATGC it is -1.3.
As to CAGAGAGAGAGAGAGAATGACCCTTGCTTG, the binding signal (log2 normalized intensity) came out at 4.14.
Consider GCTGTGTGAAGTGACTTGCCCTGTTCACAT, for which the binding signal (log2 normalized intensity) came out at 2.25.
For the sequence GGCTCAACGGGTTAGACGCACGGCAGAGCA, the binding signal (log2 normalized intensity) was -1.26.
The value for GAATTCTTGTCCAACTCCCCTCCCAAGGCA was 4.44.
Regarding AAGCAAGCTCTGCAATAGAGCCACATTCTG, the binding signal (log2 normalized intensity) was -1.31.
On to GACAAAGGCTTTGAGTCAACACACCTGTGG, for which the binding signal (log2 normalized intensity) was -1.24.
On to TTCAGCCGCTTTGAGGTCAATGGTAGAAAA, for which the binding signal (log2 normalized intensity) was found to be 1.85.
The figure for AAGATAAAAATCAGAGATCAAGATACAGGT is -1.16.
The figure for CATCTGAACTCTTCATGGACTCCTCTTATC is 2.06; for AAGAGGAAAAAGTGGCTTTTTAGGAAACAT it is -1.22; for TGTTAGAATGTATTGAGAAGAAACCTTTGC it is 2.48.
The value for CCTATACAGACCTTTGTATATTCCCTTTGT was 2.06; that for GTCACTGCTCAAAAACACTCAGTTAATTAT was -0.0424.
In the case of CAGGGTTCATAGATGATAGTGATAAGGATC, the binding signal (log2 normalized intensity) was 1.15.
The value for CTTGAGGCTGTCTGCTATGCAGAGCTCTTT was -1.18; that for GTGAGCTGTCTAATTTTGCACAGCCAGCCT was -1.52; that for TACATGAGTGATCCTGAAAACAAATAGAGC was -1.27.
The value for CGCATCTTTTATAAGGGGCAGCAAACCTAC was -1.4.
The figure for TGTCCGTTCCTGCCTGGAGCCACTGAAGTG is -1.26; for TGCTCCCTGCCCCTACCCCCACCCTGTGTT it is 5.58; for TCCAGAGATGCCAGGAGAGCCGAAGCAGTC it is -1.19.
As to CAAAGGGCATCAGCCCCAATGGCTAAGGTC, the binding signal (log2 normalized intensity) was found to be 1.89.
The figure for CACCAAAAATCACTTGGATAGCGCGTGGCC is -0.707.
CCCAGGGAGAAAGGTCAGGGGCAGGGTCGC: the binding signal (log2 normalized intensity) is 2.28.
Consider CAAGGTCCAGGAGGTCGCTGGAAAGGCGGC, for which the binding signal (log2 normalized intensity) came out at 0.399.
The value for AGTCCATTCCTTGGACTCTGCCACTGGTTT was 3.48.
The value for AGGAGGAGACAGACTTATCGGGTAGGCAAG was -1.3; that for CTGCTTTTGGAATTTGACCTCATTTGCTCC was 6.52; that for AGCTTTGATAGTCTGCTACCATCAGATAAG was -1.29.
The figure for CTGAGCCAGCACTTCGACCTCACATTGTAG is 1.99; for TTTGCCTCATTCTTATTGCCTCATGTTTGC it is 1.9.
Regarding TCATTACTGACAGAGATCAAAAACCAAAGC, the binding signal (log2 normalized intensity) is -1.34.
CTTTAGCATATTACACCTGTAGCTTCCGAA: the binding signal (log2 normalized intensity) is -1.25.
CTGGAATCACGTTCGCCTAATTTGAAGCAT: the binding signal (log2 normalized intensity) was -1.1.
The figure for CTATCTTATCTGGGCCAGGTATTTGGACTT is 4.76; for TAGAACAAAGATCAAAGCAGTATCATCAAC it is -1.24; for CCTCTGAAAGCACTTGTAGGCCTGTGTGCA it is -0.43.
The value for TTTCAGATGGACCAAAGGTCTTGTACAAAG was 2.74.
The value for TTCCTCCTGGCCTCTCTGAGCAGCCTTCCC was -1.34.
